The whole screen tested about 310,000 compounds, of which about 14,000 (4.5%) showed an effect of 50% or more. The effect is printed as a negative number. Some of the results follow.
Target: human ether-à-go-go-related gene (hERG) potassium channel (human, UniProt Q12809)
Test: primary screen, population patch clamp on CHO cells stably expressing hERG
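Note: peak tail current of the secondary pulse compared with the same well before compound.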

Sequence of human ether-à-go-go-related gene (hERG) potassium channel (Q12809 whole entry, looked up): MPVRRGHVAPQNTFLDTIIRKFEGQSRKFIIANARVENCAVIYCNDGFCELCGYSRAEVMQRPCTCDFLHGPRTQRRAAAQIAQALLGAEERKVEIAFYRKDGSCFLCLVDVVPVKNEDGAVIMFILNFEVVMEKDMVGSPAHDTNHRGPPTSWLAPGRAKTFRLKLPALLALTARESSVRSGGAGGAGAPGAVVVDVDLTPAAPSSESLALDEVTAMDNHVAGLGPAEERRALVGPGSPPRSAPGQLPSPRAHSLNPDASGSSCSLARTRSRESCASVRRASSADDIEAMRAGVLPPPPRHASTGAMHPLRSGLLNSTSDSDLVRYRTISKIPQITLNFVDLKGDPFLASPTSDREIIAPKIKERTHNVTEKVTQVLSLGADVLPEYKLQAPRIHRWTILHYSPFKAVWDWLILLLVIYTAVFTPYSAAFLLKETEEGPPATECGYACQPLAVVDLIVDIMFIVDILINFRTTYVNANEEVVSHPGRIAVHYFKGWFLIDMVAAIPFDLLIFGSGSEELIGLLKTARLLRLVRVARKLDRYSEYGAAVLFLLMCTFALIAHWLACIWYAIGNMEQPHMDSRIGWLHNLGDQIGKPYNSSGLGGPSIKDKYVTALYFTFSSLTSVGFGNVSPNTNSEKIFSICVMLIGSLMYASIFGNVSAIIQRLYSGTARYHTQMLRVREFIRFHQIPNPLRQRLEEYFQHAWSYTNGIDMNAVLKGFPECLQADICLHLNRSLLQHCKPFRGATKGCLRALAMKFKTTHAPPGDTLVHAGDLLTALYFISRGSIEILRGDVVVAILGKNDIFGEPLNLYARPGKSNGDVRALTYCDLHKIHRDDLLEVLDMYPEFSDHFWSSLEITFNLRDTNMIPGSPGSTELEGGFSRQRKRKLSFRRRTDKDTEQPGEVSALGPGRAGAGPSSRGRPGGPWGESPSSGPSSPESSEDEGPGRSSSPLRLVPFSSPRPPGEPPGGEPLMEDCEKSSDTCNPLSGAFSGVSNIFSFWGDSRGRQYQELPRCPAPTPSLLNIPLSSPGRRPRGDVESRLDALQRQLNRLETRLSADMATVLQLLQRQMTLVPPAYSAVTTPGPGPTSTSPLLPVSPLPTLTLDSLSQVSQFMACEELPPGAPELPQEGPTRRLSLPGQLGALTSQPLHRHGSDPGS

Row | SMILES | hERG current change (%, negative = inhibition) at 10uM [%]
1 | CN(C)c1nc(NS(=O)(=O)c2ccc(Cl)cc2)nc(N(C)C)n1 | -17.5
2 | CCOc1ccc(NC(=S)N2CCN(S(C)(=O)=O)CC2)cc1 | 11.3
3 | CN(C)C(=O)c1cc(C(=O)c2ccccc2C(F)(F)F)c[nH]1 | 1.09
4 | O=C(c1ccc2c(c1)N(Cc1ccc(F)cc1)C(=O)CS2)N1CCOCC1 | 4.55
5 | CC(C)Cc1nnc(NC(=O)c2ccc3c(c2)NC(=O)C(C)S3)s1 (stereo not shown) | 1.94
6 | CC(C)N1CCC(NC(=O)NC2CCCCC2)CC1 | 13.1
7 | COc1ccc(-n2c(=O)cc(N3CC(C)OC(C)C3)[nH]c2=O)cc1 (stereo not shown) | 5.84
8 | CCOC(=O)c1cnc(SCC(=O)Nc2ccc3c(c2)OCCO3)nc1N | 3.4
9 | COc1ccc(CCNC(=O)c2ccc3c(c2)N(Cc2ccc(F)cc2)CCS3)cc1OC | -20.9
10 | COc1ccc(S(=O)(=O)NCc2ccccn2)cc1Br | 12.5
11 | Cc1ccnc(NC(=O)C2CCCN(S(=O)(=O)c3ccc4[nH]c(=O)ccc4c3)C2)c1 (stereo not shown) | 1.84
12 | COc1ccccc1CN(C)C(=O)c1ccccc1Sc1ccccc1C#N | -25
13 | CN(Cc1cccc(F)c1)C(=O)c1cc(S(=O)(=O)N2CCOCC2)ccc1N1CCCC1 | -24.5
14 | COC(=O)C(CCSC)NC(=O)c1cc2c(n(-c3ccccc3)c1=O)CC(C)(C)CC2=O (stereo not shown) | -11
15 | Cc1ccc(N(CC(=O)NCc2ccc(F)cc2)S(=O)(=O)c2c(C)nn(C)c2C)cc1 | -24.5
16 | CCN(CCO)C(=O)c1ccc2nc(Cc3cccc(Cl)c3)oc2c1 | 2.88
17 | CNc1nc(C(=O)O)nc(N2CCOCC2)n1 | 3.83
18 | Cc1sc2ncn(CC(=O)N(C)C3CCCCC3)c(=O)c2c1C | -1.96
19 | N#Cc1ccccc1N1CCN(C(=O)c2ccc(NC(=O)c3ccc(Br)o3)cc2)CC1 | -18.9
20 | COc1cc(-c2nc3n(n2)C(c2ccncc2)C(C(N)=O)=C(C)N3)cc(OC)c1OC (stereo not shown) | 8.74
21 | Cc1cccc(NC(=S)NC2CCCC2)c1 | 0.919
22 | Fc1ccccc1CSc1ncn[nH]1 | -22.2
23 | CCCOCCOC(=O)C1=C(C)NC(=O)NC1c1cc(Cl)c(O)c(OC)c1 (stereo not shown) | -15.8
24 | COc1cc(/C=N/NC(=O)CC#N)ccc1Oc1nc(Cl)ncc1F | 4.89
25 | CCOC(=O)c1nnsc1NC(C)=O | 19.2

— paper PMC4336329 (PLoS ONE, 2015)
